Laboratory results from PMC12266122.
These are yes or no findings as the source states them, for the method shown. In cells and extracts the contact can be indirect. Some binding calls cover weakened binding; strength is not graded here. Tags and fused reporters may be left off the sequences shown. Values belong to the binder of their own block, whether it stands above or below them.

Key:
[1] = molecular target: T1, GFP-TSC22D4 full-length (FL) WT (human) (UniProt Q9Y3Q8); assay: co-IP; HEK293 co-transfected with GFP-TSC22D2 or GFP-TSC22D4 (full length) and FLAG-tagged full-length or C-terminally deleted TSC22D2/TSC22D4; immunoprecipitation and immunoblotting (Fig. 2F); lysis/IP buffer 50 mM tris-HCl pH 7.5, 1% NP-40, 100 mM NaCl
T1 sequence: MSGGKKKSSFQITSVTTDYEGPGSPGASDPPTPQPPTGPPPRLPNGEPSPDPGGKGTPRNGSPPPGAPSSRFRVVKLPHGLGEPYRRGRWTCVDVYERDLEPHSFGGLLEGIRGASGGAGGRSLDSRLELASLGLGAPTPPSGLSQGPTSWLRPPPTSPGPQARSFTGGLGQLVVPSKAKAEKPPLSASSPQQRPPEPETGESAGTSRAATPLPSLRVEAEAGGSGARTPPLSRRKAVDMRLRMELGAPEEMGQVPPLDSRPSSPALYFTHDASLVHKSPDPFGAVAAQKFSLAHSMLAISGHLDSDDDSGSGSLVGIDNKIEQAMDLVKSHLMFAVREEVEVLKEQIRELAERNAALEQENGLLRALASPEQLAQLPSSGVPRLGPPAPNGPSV

[2] = molecular target: T2, GFP-TSC22D2 full-length (FL) WT (human) (UniProt O75157); assay: as above
T2 sequence: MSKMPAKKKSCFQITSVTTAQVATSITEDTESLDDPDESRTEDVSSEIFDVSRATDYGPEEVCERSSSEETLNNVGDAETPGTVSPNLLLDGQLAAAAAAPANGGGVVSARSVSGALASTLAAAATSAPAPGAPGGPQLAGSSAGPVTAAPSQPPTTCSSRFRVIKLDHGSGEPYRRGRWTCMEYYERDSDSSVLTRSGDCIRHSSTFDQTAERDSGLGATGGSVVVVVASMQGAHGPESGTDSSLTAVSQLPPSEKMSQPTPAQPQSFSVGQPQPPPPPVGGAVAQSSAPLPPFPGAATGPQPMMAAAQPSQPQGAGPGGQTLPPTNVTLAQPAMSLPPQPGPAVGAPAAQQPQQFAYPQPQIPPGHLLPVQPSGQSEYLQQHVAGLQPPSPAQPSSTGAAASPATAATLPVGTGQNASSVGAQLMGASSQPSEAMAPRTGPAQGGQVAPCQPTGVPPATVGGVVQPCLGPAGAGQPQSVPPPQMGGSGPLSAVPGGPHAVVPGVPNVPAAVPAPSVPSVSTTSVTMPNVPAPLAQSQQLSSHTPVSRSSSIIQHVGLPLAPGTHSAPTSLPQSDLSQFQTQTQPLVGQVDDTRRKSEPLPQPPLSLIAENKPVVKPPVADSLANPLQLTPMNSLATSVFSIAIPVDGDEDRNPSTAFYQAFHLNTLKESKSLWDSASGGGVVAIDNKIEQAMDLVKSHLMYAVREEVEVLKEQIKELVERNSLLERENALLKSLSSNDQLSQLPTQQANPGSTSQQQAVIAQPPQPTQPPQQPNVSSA

- binding [1]: no binding
- binding [2]: no binding
B1: FLAG-TSC22D2Δ (TSC22D2 M1-I690, lacking the C-terminal TSC22 domain) (domain or fragment, UniProt O75157 1-690)
chain: MSKMPAKKKSCFQITSVTTAQVATSITEDTESLDDPDESRTEDVSSEIFDVSRATDYGPEEVCERSSSEETLNNVGDAETPGTVSPNLLLDGQLAAAAAAPANGGGVVSARSVSGALASTLAAAATSAPAPGAPGGPQLAGSSAGPVTAAPSQPPTTCSSRFRVIKLDHGSGEPYRRGRWTCMEYYERDSDSSVLTRSGDCIRHSSTFDQTAERDSGLGATGGSVVVVVASMQGAHGPESGTDSSLTAVSQLPPSEKMSQPTPAQPQSFSVGQPQPPPPPVGGAVAQSSAPLPPFPGAATGPQPMMAAAQPSQPQGAGPGGQTLPPTNVTLAQPAMSLPPQPGPAVGAPAAQQPQQFAYPQPQIPPGHLLPVQPSGQSEYLQQHVAGLQPPSPAQPSSTGAAASPATAATLPVGTGQNASSVGAQLMGASSQPSEAMAPRTGPAQGGQVAPCQPTGVPPATVGGVVQPCLGPAGAGQPQSVPPPQMGGSGPLSAVPGGPHAVVPGVPNVPAAVPAPSVPSVSTTSVTMPNVPAPLAQSQQLSSHTPVSRSSSIIQHVGLPLAPGTHSAPTSLPQSDLSQFQTQTQPLVGQVDDTRRKSEPLPQPPLSLIAENKPVVKPPVADSLANPLQLTPMNSLATSVFSIAIPVDGDEDRNPSTAFYQAFHLNTLKESKSLWDSASGGGVVAIDNKI

- binding [2]: binds
B2: GFP-TSC22D2 full-length (FL) WT (protein, UniProt O75157 1-780)
chain: T2 sequence

- binding [1]: binds
B3: GFP-TSC22D4 full-length (FL) WT (protein, UniProt Q9Y3Q8 1-395)
chain: T1 sequence

- binding [1]: no binding
- binding [2]: no binding
B4: FLAG-TSC22D4Δ (TSC22D4 M1-N320, lacking the C-terminal TSC22 domain) (domain or fragment, UniProt Q9Y3Q8 1-320)
chain: MSGGKKKSSFQITSVTTDYEGPGSPGASDPPTPQPPTGPPPRLPNGEPSPDPGGKGTPRNGSPPPGAPSSRFRVVKLPHGLGEPYRRGRWTCVDVYERDLEPHSFGGLLEGIRGASGGAGGRSLDSRLELASLGLGAPTPPSGLSQGPTSWLRPPPTSPGPQARSFTGGLGQLVVPSKAKAEKPPLSASSPQQRPPEPETGESAGTSRAATPLPSLRVEAEAGGSGARTPPLSRRKAVDMRLRMELGAPEEMGQVPPLDSRPSSPALYFTHDASLVHKSPDPFGAVAAQKFSLAHSMLAISGHLDSDDDSGSGSLVGIDN
